# From patent US20260232827A1, “ANTIBODY-DRUG CONJUGATES TARGETING NAPI2B AND METHODS OF USE” (Zymeworks BC Inc., priority 2023, published 2026)
# T1: NaPi2b on IGROV-1 cells (Homo sapiens, UniProt O95436)
# T1 construct: IGROV-1 cells express endogenous NaPi2b at a high level; endogenous in cells; host or cells: IGROV-1
# T1 sequence (O95436 1-690): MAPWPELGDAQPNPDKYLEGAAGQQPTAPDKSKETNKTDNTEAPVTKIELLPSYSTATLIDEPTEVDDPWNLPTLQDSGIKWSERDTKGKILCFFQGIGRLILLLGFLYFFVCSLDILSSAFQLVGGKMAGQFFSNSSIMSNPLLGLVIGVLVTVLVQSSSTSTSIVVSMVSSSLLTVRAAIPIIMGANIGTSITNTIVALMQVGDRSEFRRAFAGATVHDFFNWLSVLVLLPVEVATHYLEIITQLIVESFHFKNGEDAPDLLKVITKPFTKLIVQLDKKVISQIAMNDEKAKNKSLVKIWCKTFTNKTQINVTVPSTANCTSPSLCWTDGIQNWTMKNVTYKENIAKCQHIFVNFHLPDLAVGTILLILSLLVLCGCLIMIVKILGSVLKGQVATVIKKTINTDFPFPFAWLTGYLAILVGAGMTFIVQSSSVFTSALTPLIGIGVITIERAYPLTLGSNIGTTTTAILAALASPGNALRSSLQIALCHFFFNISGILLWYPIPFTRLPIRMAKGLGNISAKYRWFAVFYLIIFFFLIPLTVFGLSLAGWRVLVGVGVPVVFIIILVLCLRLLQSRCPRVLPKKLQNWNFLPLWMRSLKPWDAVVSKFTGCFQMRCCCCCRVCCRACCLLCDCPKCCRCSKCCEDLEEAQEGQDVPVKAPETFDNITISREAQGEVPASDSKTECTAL
# Biological target: T1, NaPi2b on IGROV-1 cells
# Experiment: Cellular binding by flow cytometry
# Details: 24 hours at 4° C.
# Description: IGROV-1 cells express endogenous NaPi2b at a high level.
# Briefly, cells were seeded at 50,000 cells/well in conical-bottom 96-well plates and treated with test antibody for 24 hours at 4° C. to prevent internalization. […] Following incubation and washing, fluorescence was detected by flow cytometry on a BD LSRFortessa™ Cell Analyzer (BD Biosciences, Franklin Lake, NJ) with 1,000 minimum events collected per well.
# (§1) Cells were maintained under standard culture conditions (37° C./5% CO2) until assay set-up; IGROV-1 cells were cultured in RPMI 1640, ATCC modification (Thermo Fisher Scientific, Waltham, MA) supplemented with 10% fetal bovine serum (Thermo Fisher Scientific, Waltham, MA); OVCAR-3 cells were cultured in RPMI 1640, ATCC modification (Thermo Fisher Scientific, Waltham, MA) supplemented with 20% fetal bovine serum (Thermo Fisher Scientific, Waltham, MA), and 0.01 μg/mL human insulin (Sigma-Aldrich, Oakville, Canada); Cells were removed from culture vessels using Cell Dissociation Buffer (Invitrogen, Waltham, MA), seeded at 50,000 cells/well in conical-bottom 96-well plates, and treated with test antibody or antibody-drug conjugate for 24 hours at 4° C. to prevent internalization. […] Following incubation and washing, fluorescence was detected by flow cytometry on a BD LSRFortessa™ Cell Analyzer (BD Biosciences, Franklin Lake, NJ) with 1,000 minimum events collected per well.
# as §1, with “set-up. IGROV-1, HCC-78, H441 and EBC-1” for “set-up; IGROV-1”, “MA).” for “MA); OVCAR-3 cells were cultured in RPMI 1640, ATCC modification (Thermo Fisher Scientific, Waltham, MA) supplemented with 20% fetal bovine serum (Thermo Fisher Scientific, Waltham, MA), and 0.01 μg/mL human insulin (Sigma-Aldrich, Oakville, Canada);”
Bmax IGROV-1,Curve Hill Slope (h) IGROV-1,Molecule
"44,460",1.3,v29449 (H4L3) (antibody) heavy: QVQLVQSGAEVKKPGASVKMSCKASGFTFTSYNVHWVRQAPGQGLEWIAAISPGNGDLSYAQKFQGRATLTVDRSTSTAYMELSSLRSEDTAVYYCARGRTGMGAVDYWGQGTLVTVSS[human IgG1 constant region skipped] light: DVQMTQSPSSLSASVGDRVTITCRASQDVYSYLNWYQQKPGKAVKLLIYYTSRLQSGVPSRFSGSGSGTDYTLTISSLQPEDIATYYCQQYNIFPWTFGQGTKLEIKRTVAAPSVFIFPPSDEQLKSGTASVVCLLNNFYPREAKVQWKVDNALQSGNSQESVTEQDSKDSTYSLSSTLTLSKADYEKHKVYACEVTHQGLSSPVTKSFNRGEC
"43,809",1.2,v29450 (H3L3) (antibody) heavy: QVQLVQSGAEVKKPGASVKMSCKASGFTFTSYNVHWVRQAPGQGLEWIAAISPGNGDLSYAQKFQGRATLTVDTSTSTAYMELSSLRSEDTAVYYCARGRTGMGAVDYWGQGTLVTVSS[human IgG1 constant region skipped] light: DVQMTQSPSSLSASVGDRVTITCRASQDVYSYLNWYQQKPGKAVKLLIYYTSRLQSGVPSRFSGSGSGTDYTLTISSLQPEDIATYYCQQYNIFPWTFGQGTKLEIKRTVAAPSVFIFPPSDEQLKSGTASVVCLLNNFYPREAKVQWKVDNALQSGNSQESVTEQDSKDSTYSLSSTLTLSKADYEKHKVYACEVTHQGLSSPVTKSFNRGEC
"40,071",1.2,v29460 (H1L1) (antibody) heavy: QVQLVQSGAEVKKPGASVKVSCKASGFTFTSYNVHWVRQAPGQGLEWMGAISPGNGDLSYAQKFQGRVTMTRDTSTSTVYMELSSLRSEDTAVYYCARGRTGMGAVDYWGQGTLVTVSS[human IgG1 constant region skipped] light: DIQMTQSPSSLSASVGDRVTITCRASQDVYSYLNWYQQKPGKAPKLLIYYTSRLQSGVPSRFSGSGSGTDFTLTISSLQPEDFATYYCQQYNIFPWTFGQGTKLEIKRTVAAPSVFIFPPSDEQLKSGTASVVCLLNNFYPREAKVQWKVDNALQSGNSQESVTEQDSKDSTYSLSSTLTLSKADYEKHKVYACEVTHQGLSSPVTKSFNRGEC
"40,941",1.2,v29459 (H2L1) (antibody) heavy: QVQLVQSGAEVKKPGASVKVSCKASGFTFTSYNVHWVRQAPGQGLEWIAAISPGNGDLSYAQKFQGRVTMTVDTSTSTVYMELSSLRSEDTAVYYCARGRTGMGAVDYWGQGTLVTVSS[human IgG1 constant region skipped] light: DIQMTQSPSSLSASVGDRVTITCRASQDVYSYLNWYQQKPGKAPKLLIYYTSRLQSGVPSRFSGSGSGTDFTLTISSLQPEDFATYYCQQYNIFPWTFGQGTKLEIKRTVAAPSVFIFPPSDEQLKSGTASVVCLLNNFYPREAKVQWKVDNALQSGNSQESVTEQDSKDSTYSLSSTLTLSKADYEKHKVYACEVTHQGLSSPVTKSFNRGEC
"46,170",1.1,v29451 (H2L3) (antibody) heavy: QVQLVQSGAEVKKPGASVKVSCKASGFTFTSYNVHWVRQAPGQGLEWIAAISPGNGDLSYAQKFQGRVTMTVDTSTSTVYMELSSLRSEDTAVYYCARGRTGMGAVDYWGQGTLVTVSS[human IgG1 constant region skipped] light: DVQMTQSPSSLSASVGDRVTITCRASQDVYSYLNWYQQKPGKAVKLLIYYTSRLQSGVPSRFSGSGSGTDYTLTISSLQPEDIATYYCQQYNIFPWTFGQGTKLEIKRTVAAPSVFIFPPSDEQLKSGTASVVCLLNNFYPREAKVQWKVDNALQSGNSQESVTEQDSKDSTYSLSSTLTLSKADYEKHKVYACEVTHQGLSSPVTKSFNRGEC
"40,793",1.1,v29458 (H3L1) (antibody) heavy: QVQLVQSGAEVKKPGASVKMSCKASGFTFTSYNVHWVRQAPGQGLEWIAAISPGNGDLSYAQKFQGRATLTVDTSTSTAYMELSSLRSEDTAVYYCARGRTGMGAVDYWGQGTLVTVSS[human IgG1 constant region skipped] light: DIQMTQSPSSLSASVGDRVTITCRASQDVYSYLNWYQQKPGKAPKLLIYYTSRLQSGVPSRFSGSGSGTDFTLTISSLQPEDFATYYCQQYNIFPWTFGQGTKLEIKRTVAAPSVFIFPPSDEQLKSGTASVVCLLNNFYPREAKVQWKVDNALQSGNSQESVTEQDSKDSTYSLSSTLTLSKADYEKHKVYACEVTHQGLSSPVTKSFNRGEC
"44,539",1.0,v29457 (H4L1) (antibody) heavy: QVQLVQSGAEVKKPGASVKMSCKASGFTFTSYNVHWVRQAPGQGLEWIAAISPGNGDLSYAQKFQGRATLTVDRSTSTAYMELSSLRSEDTAVYYCARGRTGMGAVDYWGQGTLVTVSS[human IgG1 constant region skipped] light: DIQMTQSPSSLSASVGDRVTITCRASQDVYSYLNWYQQKPGKAPKLLIYYTSRLQSGVPSRFSGSGSGTDFTLTISSLQPEDFATYYCQQYNIFPWTFGQGTKLEIKRTVAAPSVFIFPPSDEQLKSGTASVVCLLNNFYPREAKVQWKVDNALQSGNSQESVTEQDSKDSTYSLSSTLTLSKADYEKHKVYACEVTHQGLSSPVTKSFNRGEC
